“And” between values parts separate entries of the source, which are not always exact repeats. Equal values may be shown once. Among all 350,000 compounds or so, about 9,900 (2.8%) were called active. The inconclusive results got no clear call from the source; some entries with a clear call stand among them for comparison. The call rests on the fitted dose curve; in most records, active means well fitted activation curve with a large enough effect; inconclusive means small, poorly fitted or top-dose-only effect; inactive means no such curve, though single readings can be large or run the other way. No potency is given beside an inconclusive call; the fits are too rough.
Experiment: A quantitative high throughput screen for small molecules that induce DNA re-replication in MCF 10a normal breast cells. Further: nearly all actives have a fitted effect of over 50% in size.
Conditions: MCF 10A DNA re-replication, Hoechst nuclear intensity, 48 h; series mostly up to 46.1 µM
Potency means the concentration at half of the fitted maximal effect; tags describe the fitted curve by direction and shape.

| Compound | Potency |
| --- | --- |
| FC(F)(F)c1cccc(-c2noc(CN3CCOCC3)n2)c1 | inconclusive [activator, full curve, poor fit] |
| COc1ccc(OC)c(NC(=O)CSc2ncnc3c2cnn3-c2ccccc2Cl)c1 | inconclusive [activator, partial curve, poor fit] |
| CC(=O)Nc1ccc(S(=O)(=O)N2CCC(c3nnc(-c4ccc(C)cc4)o3)CC2)cc1 | inactive |
| Cc1oc2c(cc(NS(=O)(=O)c3ccc(C(C)C)cc3)c3ccccc32)c1C(=O)O | inconclusive [activator, partial curve, poor fit] |
| CCOc1ccc(C(=O)Nc2ccccc2CC)cc1[N+](=O)[O-] | inconclusive [activator, partial curve, poor fit] |
| Cc1cc(C(=O)OCC(=O)NC(=O)c2cccn2C)c2ccccc2n1 | inactive |
| C=CC[C@H](CC(=O)NCCO)C(=O)N[C@H](COC(=O)[C@@H](CC=C)Cc1ccc(F)cc1)C(C)(C)C | inconclusive [activator, full curve, poor fit] |
| CC(C)(C)NC(=O)NC(=O)COC(=O)c1cccc(S(=O)(=O)N2CCCCC2)c1 | inconclusive [activator, partial curve, poor fit] |
| COc1ccccc1NS(=O)(=O)c1ccc(Cl)c(NC(=O)CN2C(=O)c3ccccc3C2=O)c1 | inactive |
| COC(=O)C1=C(O)/C(=C\c2ccc(CNC(=O)C(=O)Nc3ccc(C)cc3)o2)N=C1C | inactive |
| COc1cc2c(c(OC)c1OC)C(c1ccc(O)cc1)CC(=O)O2 (configuration not stated) | inconclusive [activator, full curve, poor fit] |
| Cc1ccc(S(=O)(=O)Nc2cc(C(F)(F)F)ccc2N2CCOCC2)cc1 | inconclusive [activator, single point] |
| CCc1ccc2[nH]c(=O)c(CN(Cc3ccccc3)Cc3nnnn3Cc3ccco3)cc2c1 | inactive |
| CN(Cc1nc2ccccc2c(=O)[nH]1)c1ccccc1 | inactive |
| c1ccc2c(c1)OC(CCCN1CCCCC1)c1ccccc1S2 (configuration not stated) | inconclusive [activator, partial curve, poor fit] |
| O=C(COc1ccc(Cl)cc1)Nc1ccc(Cc2ccncc2)cc1 | inconclusive [activator, single point] |
| O=C(CN1C(=O)/C(=C/c2ccc(F)cc2)SC1=S)N1CCN(CCc2ccccn2)CC1 | inconclusive [activator, single point] |
| Fc1ccc(COc2ccccc2-c2ccnc3ncnn23)cc1 | inconclusive [activator, single point] |
| COc1ccc(-n2nnc3c(SCC(=O)NCC4CCCO4)ncnc32)cc1 (configuration not stated) | inconclusive [activator, single point] |
| CC(C)[C@H](NC(=O)[C@@H]1Cc2ccccc2CN1)C(=O)NC1CCCCC1 | inactive |
| COc1ccc(C(=O)c2sc3nc(C)cc(-c4cccs4)c3c2N)cc1OC | active: 5.17 µM |
| Cc1ccc(C(=O)NCC2(c3ccccc3)CCCC2)cc1 | inconclusive [activator, partial curve, poor fit] |
| CCc1ccc(-c2cc3c(=O)n(CC(=O)NCCCN4CCN(C)CC4)ncn3n2)cc1 | inconclusive [activator, partial curve, poor fit] |

| Compound | Potency |
| --- | --- |
| O=C(NCCCN1CCOCC1)c1ccc2c(=O)n(Cc3cccc(Br)c3)c(=S)[nH]c2c1 | inactive |
| O=C(Nc1cc(C(F)(F)F)ccc1-n1cncn1)c1ccc([N+](=O)[O-])o1 | inconclusive [activator, partial curve, poor fit] |
| O=C1N=c2ccc([N+](=O)[O-])cc2=C1c1sc(=O)[nH]c1O | inconclusive [activator, partial curve, poor fit] |
| CC1(C)CC(Nc2ccc(Nc3ccccc3)cc2)CC(C)(C)N1 | inconclusive [activator, single point] |
| COc1cc(-n2c(N)c(C(=O)NCc3ccco3)c3nc4ccccc4nc32)cc(OC)c1OC | active: 13 µM and active: 9.2 µM |
| Cc1ccccc1-n1c(CSC(=N)N)nc2ccccc2c1=O | inconclusive [activator, single point] |
| CCCCc1ccc(Nc2nc(N3CCOCC3)nc(N3CCOCC3)n2)cc1 | inconclusive [activator, partial curve, poor fit] |
| Cc1c(Br)c([N+](=O)[O-])nn1CCCC(=O)Nc1sc2c(c1C(N)=O)CCC(C)C2 (configuration not stated) | inactive |
| CCn1c(=O)cc(SCC(=O)NCc2cccnc2)c2ccccc21 | inactive |
| O=C(NCC(c1ccco1)N1CCCC1)c1sc2ccccc2c1Cl (configuration not stated) | inconclusive [activator, single point] |
| Nc1c2c(nc3ccn(-c4ccccc4)c(=O)c13)CCCCC2 | inactive |
| O=C(C1CC1)N1CCN(Cc2ccccc2)CC1 | inconclusive [activator, single point] |
| COc1ccc(C2CC(c3ccc(OC)cc3O)=NN2C(=O)c2ccccc2)cc1 (configuration not stated) | inconclusive [activator, full curve, poor fit] |
| CCOC(=O)c1c(NC(=O)C(C)OC(=O)c2ccc(NC(=O)CC#N)cc2)sc2c1CCCC2 (configuration not stated) | inconclusive [activator, partial curve, poor fit] |
| CCCCSc1nc(N)c(C#N)c(-c2cccs2)c1C#N | inconclusive [activator, single point] |
| Cn1c(CSc2nc3ccccc3s2)n[nH]c1=S | inactive |
| COc1ccc2sc(-c3ccccc3OC)c(C#Cc3cncn3C)c2c1 | inconclusive [activator, single point] |
| COc1ccc(S(=O)(=O)N(C)C[C@H]2Oc3ccc(NC(=O)Nc4ccc5c(c4)OCO5)cc3C(=O)N([C@H](C)CO)C[C@@H]2C)cc1 | inconclusive [activator, full curve, poor fit] |
| C=CCNCC(=O)N1N=C(c2ccc3ccccc3c2)CC1c1ccc(OC)cc1 (configuration not stated) | inconclusive [activator, single point] |
| Cc1cc(C)c2nc(N3CCC(C(=O)N4CCN(C(=O)c5ccco5)CC4)CC3)sc2c1 | inactive |
| COc1ccc(OC)c(N(CC(=O)NCCSCc2ccc(C)cc2)S(C)(=O)=O)c1 | inconclusive [activator, partial curve, poor fit] |
| O=C(NCc1ccco1)c1cc(-c2cccs2)nc2ccccc12 | inactive |
| CCc1ccc2[nH]c(=O)c(CN(CCN(C)C)C(=S)NCc3ccco3)cc2c1 | inactive |

| Compound | Potency |
| --- | --- |
| O=C(c1ccco1)N1CCN(C(=O)N2CCCCC2)CC1 | inconclusive [activator, full curve, poor fit] |
| C[C@H](CO)N1C[C@H](C)[C@@H](CN(C)C(=O)Nc2ccc(C(F)(F)F)cc2)Oc2ccc(NC(=O)Cc3ccccc3)cc2C1=O | inactive |
| Cc1cc(F)ccc1N1CCC(N2CCN(C(C)C)C(CCO)C2)CC1 (configuration not stated) | inconclusive [activator, full curve] |
| CC(C)(C)c1ccc(C(=O)Nc2ccccc2Cl)cc1 | inconclusive [activator, single point] |
| Cc1cc(C(=O)NCC(=O)OC(C)C(=O)N2CCOCC2)ccc1[N+](=O)[O-] (configuration not stated) | inactive |
| CCN(CC)S(=O)(=O)c1ccc(NC(=O)Nc2cccc(C(F)(F)F)c2)cc1 | inconclusive [activator, partial curve, poor fit] |
| CCC1(C)CC(c2nc(-c3ccc(OC)cc3)cs2)CCS1 (configuration not stated) | inconclusive [activator, single point] |
| Cc1cc(=O)n2c3ccccc3n(C)c2n1 | inconclusive [activator, single point] |
| Cc1ccc(C(=O)NC(=S)Nc2cccc3c(C)cc(C)nc23)cc1 | inconclusive [activator, full curve, poor fit] |
| O=C(Nc1ccc(Br)cc1)C1CCCC1 | inactive |
| CC(=O)Nc1nc(C)cs1 | inactive |
| COc1ccc(C2/C=C\CN(C(=O)c3ccc(C)cc3)[C@H](Cc3ccccc3)C(=O)N2Cc2ccc(F)cc2)cc1 (some centres not stated) | inconclusive [activator, partial curve, poor fit] |
| Cc1ccc(-c2onc3ccc(C(=O)/C=C/N(C)C)cc23)cc1 | inconclusive [activator, single point] |
| Cc1[nH]c2ccccc2c1C(=O)COC(=O)CCS(=O)(=O)c1ccccc1Cl | inconclusive [activator, single point] |
| CCCN1CCC(Oc2cccc(C(=O)NCCc3ccccc3)c2)CC1 | inactive |
| CCS(=O)(=O)c1ncc(Cl)c(C(=O)Nc2ccc(S(=O)(=O)N3CCC(C)CC3)cc2)n1 | active: 1.84 µM |
| Cc1ccc(-n2c(C)cc(/C=c3/sc4nc5ccccc5n4c3=O)c2C)cc1 | active: 9.2 µM |
| CNC(=O)c1cc2c(ccc3ccccc32)o1 | inactive |
| COC(=O)c1ccc(NC(=O)C(=O)N2CCN(C(=S)Nc3ccc(C)cc3)CC2)cc1 | inactive |
| O=C(/C=C/Nc1ccc(S(=O)(=O)Nc2cnc3ccccc3n2)cc1)c1cccnc1 | inconclusive [activator, partial curve, poor fit] |
| OCCOC[C@H]1O[C@H](OCCO)[C@H](OCCO)[C@@H](OCCO)[C@@H]1OCCO (tested in a mixture with another compound) | inactive |
